In PubChem BioAssay AID504333 (National Center for Advancing Translational Sciences (NCATS), 2011):
Hit rate of the full screen: of about 360,000 compounds, about 16,000 (4.4%) were called active. Inconclusive results, whose numbers are uncertain, are shown with a selection of clear calls. Calls follow the shape of the dose curve; as a rule, active = well fitted inhibition curve with a large enough effect; inconclusive = small, poorly fitted or top-dose-only effect; inactive = no such curve, though single readings can be large or run the other way. A potency beside an inconclusive call is a rough fit, not a confirmed value.

Each compound was assayed against Bromodomain adjacent to zinc finger domain protein 2B (Homo sapiens) (UniProt Q9UIF8) (assay: qHTS Assay for Inhibitors of BAZ2B). Details: AlphaScreen BAZ2B-H3K14Ac peptide displacement; activity change, negative = inhibition: at 114 µM (top of the series) unless noted.
Summary of the method: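 Inhibition is scored as reduced AlphaScreen emission. The BAZ2B/b-H3(5-23)K14Ac complex (50 nM each) in PBS pH 7.4, 0.01% Tween-20 meets compound (up to 110 uM) for 30 min at RT before bead addition.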
% is scaled to controls: 0 for no effect and ±100 for the full control effect; potency is read from the fitted curve at half-maximal effect; tags tell the direction and shape of the fitted curve.
Also: nearly all actives have a fitted effect of over 60% in size.

UniProt Q9UIF8, sequence (Q9UIF8 whole entry, looked up, the tested form may be a part): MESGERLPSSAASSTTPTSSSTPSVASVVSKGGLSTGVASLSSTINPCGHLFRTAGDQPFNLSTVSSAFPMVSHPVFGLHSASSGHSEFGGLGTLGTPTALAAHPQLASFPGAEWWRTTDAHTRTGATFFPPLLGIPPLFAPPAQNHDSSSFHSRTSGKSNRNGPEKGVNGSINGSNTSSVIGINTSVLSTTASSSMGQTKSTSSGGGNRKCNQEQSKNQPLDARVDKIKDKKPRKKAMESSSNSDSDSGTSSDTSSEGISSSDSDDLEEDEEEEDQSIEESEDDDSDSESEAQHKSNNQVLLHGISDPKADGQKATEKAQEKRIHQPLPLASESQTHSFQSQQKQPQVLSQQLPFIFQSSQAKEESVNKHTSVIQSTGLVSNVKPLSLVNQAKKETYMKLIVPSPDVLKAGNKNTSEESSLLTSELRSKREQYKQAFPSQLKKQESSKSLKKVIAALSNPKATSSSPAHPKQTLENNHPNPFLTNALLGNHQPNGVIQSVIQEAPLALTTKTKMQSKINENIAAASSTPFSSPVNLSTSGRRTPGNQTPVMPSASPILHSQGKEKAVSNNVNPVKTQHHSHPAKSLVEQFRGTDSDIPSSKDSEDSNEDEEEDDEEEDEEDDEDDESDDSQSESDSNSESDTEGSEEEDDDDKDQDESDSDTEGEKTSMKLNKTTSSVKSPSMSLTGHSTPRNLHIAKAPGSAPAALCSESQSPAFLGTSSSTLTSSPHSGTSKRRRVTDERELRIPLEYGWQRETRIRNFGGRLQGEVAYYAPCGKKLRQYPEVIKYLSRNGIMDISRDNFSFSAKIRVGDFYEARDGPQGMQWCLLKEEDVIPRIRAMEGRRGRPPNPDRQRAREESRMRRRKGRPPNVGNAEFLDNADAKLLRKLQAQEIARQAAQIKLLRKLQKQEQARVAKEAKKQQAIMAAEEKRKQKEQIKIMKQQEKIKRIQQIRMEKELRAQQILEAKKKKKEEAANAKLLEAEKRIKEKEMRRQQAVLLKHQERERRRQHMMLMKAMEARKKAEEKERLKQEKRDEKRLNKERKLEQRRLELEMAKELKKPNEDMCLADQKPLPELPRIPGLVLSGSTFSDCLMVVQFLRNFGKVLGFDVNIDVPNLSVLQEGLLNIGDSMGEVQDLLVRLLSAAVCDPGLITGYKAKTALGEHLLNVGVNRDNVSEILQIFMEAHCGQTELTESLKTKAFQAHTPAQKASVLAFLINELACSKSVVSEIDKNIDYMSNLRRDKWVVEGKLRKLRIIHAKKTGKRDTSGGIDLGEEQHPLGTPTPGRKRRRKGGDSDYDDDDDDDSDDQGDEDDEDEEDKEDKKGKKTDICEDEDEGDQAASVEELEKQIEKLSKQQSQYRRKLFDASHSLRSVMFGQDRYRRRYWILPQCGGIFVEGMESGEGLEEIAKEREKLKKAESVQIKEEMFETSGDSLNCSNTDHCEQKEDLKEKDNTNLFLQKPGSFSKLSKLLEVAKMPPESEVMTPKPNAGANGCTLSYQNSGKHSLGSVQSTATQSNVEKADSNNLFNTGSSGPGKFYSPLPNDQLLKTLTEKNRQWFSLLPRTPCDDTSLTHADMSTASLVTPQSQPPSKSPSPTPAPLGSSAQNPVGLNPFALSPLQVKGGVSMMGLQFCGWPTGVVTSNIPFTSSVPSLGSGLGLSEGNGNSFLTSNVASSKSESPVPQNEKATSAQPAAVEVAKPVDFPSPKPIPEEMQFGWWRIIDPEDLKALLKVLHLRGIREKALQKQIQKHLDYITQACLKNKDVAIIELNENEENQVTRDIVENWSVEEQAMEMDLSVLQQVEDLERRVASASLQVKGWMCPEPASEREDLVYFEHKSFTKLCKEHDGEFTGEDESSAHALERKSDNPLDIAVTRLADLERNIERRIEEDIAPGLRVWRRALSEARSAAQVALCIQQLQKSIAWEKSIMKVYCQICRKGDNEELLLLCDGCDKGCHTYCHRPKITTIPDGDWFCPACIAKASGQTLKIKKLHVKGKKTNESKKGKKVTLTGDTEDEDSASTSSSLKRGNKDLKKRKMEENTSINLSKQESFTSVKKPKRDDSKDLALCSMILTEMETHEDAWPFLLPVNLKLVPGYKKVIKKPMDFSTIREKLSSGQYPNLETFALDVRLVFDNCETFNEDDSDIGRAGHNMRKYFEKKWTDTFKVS

SMILES	Potency	activity change, negative = inhibition
COC(=O)C(C)N1C(=O)S/C(=C\c2cc(C)n(-c3ccccn3)c2C)C1=O (configuration not stated)	inconclusive: 50.1 µM [inhibitor, partial curve]	–
COc1ccc(Cl)cc1NC(=O)c1cnc2sc(N3CCOCC3)nn2c1=O	–	inactive: -3.74%
CCC(Sc1nc2sc(C(=O)OC)c(C)c2c(=O)n1N)C(=O)N(CC)CC (configuration not stated)	inconclusive: 89.1 µM [inhibitor, single point]	–
Cc1ccc(NC(=O)c2ccc(NCCCN3CCOCC3)c([N+](=O)[O-])c2)cc1Cl	inconclusive: 0.631 µM [inhibitor, full curve, poor fit]	–
Cc1ccc(N(CC(C)C)S(=O)(=O)c2nnc(NC(=O)C(C)C)s2)cc1	–	inactive: 247%
CN1Cc2c(N3CCOCC3)nc3sc(C(=O)c4ccccc4)c(N)c3c2CC1(C)C	inconclusive: 44.7 µM [inhibitor, partial curve]	–
COc1cc(-c2[nH]nc3c2C(c2ccco2)C(C#N)=C(N)O3)cc(OC)c1OC (configuration not stated)	–	inactive: -36.7%
COc1cc(/C=C2\NC(=S)N(C)C2=O)ccc1O	inconclusive: 79.4 µM [inhibitor, single point]	–
OCCN(Cc1ccccc1)Cc1ccc(Cl)cc1	inconclusive: 44.7 µM [inhibitor, single point]	–
CC(=Nc1ccc(C)cc1C)c1sc2ccccc2c1O	inconclusive: 89.1 µM [inhibitor, single point]	–
O=C(CCS(=O)(=O)c1ccccc1)N(CCCN1CCOCC1)c1nc2c(F)cccc2s1	inconclusive: 79.4 µM [inhibitor, partial curve]	–
COc1ccc(OC)c(NC2c3ncccc3C(=O)N2Cc2ccco2)c1 (configuration not stated)	inconclusive: 89.1 µM [inhibitor, single point]	–
O=C(NC(=S)N1CCc2ccccc21)c1ccco1	inconclusive: 89.1 µM [inhibitor, single point]	–
Cc1ccc2oc(=O)c(/C=C(\O)CC(C)C)nc2c1	–	inactive: -35.3%
Brc1ccc(/C=N/Nc2nncc(-c3ccccc3)n2)o1	–	inactive: -4.26%
CC(=O)Nc1ccc(S(=O)(=O)Nc2nnc(CC(C)(C)C)s2)cc1	inconclusive: 56.2 µM [inhibitor, single point]	–
CCCS(=O)(=O)c1c(S(=O)(=O)CCC)c2c(N)cccn2c1C(=O)OC	inconclusive: 79.4 µM [inhibitor, partial curve]	–
COc1cccc(CNc2ccc3[nH]c(=O)[nH]c3c2)c1OCc1ccccc1F	active: 28.2 µM	–
C/C(=N\NC(=O)c1cc(-c2cccs2)nc2ccccc12)c1ccccn1	active: 5.62 µM	–
COc1cc(NC(=O)COc2c(C)cc(C)cc2[N+](=O)[O-])c(OC)cc1Cl	–	inactive: -34.6%
CC(=O)c1ccc(NS(=O)(=O)c2cc3c(cc2C)N(C)CCO3)cc1	inconclusive: 50.1 µM [inhibitor, partial curve]	–
COc1cccc(C(=O)/C(C#N)=N/Nc2cccc(-c3ccnc(C)n3)c2)c1	inconclusive: 50.1 µM [inhibitor, partial curve]	–
COc1ccc(S(=O)(=O)Nc2ccc3c(c2)n(C)c(=O)n3C)cc1	inconclusive: 56.2 µM [inhibitor, partial curve, poor fit]	–
Cc1ccc(C)c(NC(=S)NCCc2c[nH]c3ccccc23)c1	active: 44.7 µM	–

SMILES	Potency	activity change, negative = inhibition
CCOC(=O)c1[nH]c(C)c(/C(O)=C2\C(=O)C(=O)N(CCCN(C)C)C2c2ccncc2)c1C (configuration not stated)	–	inactive: -2.35%
O=C(CCCOc1ccccc1)Nc1ccccc1C(F)(F)F	–	inactive: 12.3%
CCN1C(=O)/C(=C\c2ccncc2)SC1=Nc1ccc(C)c(C)c1	active: 31.6 µM	–
COc1ccc(-c2cc(=O)c3c(O)cc(O[C@@H]4O[C@H](CO[C@@H]5O[C@@H](C)[C@H](O)[C@@H](O)[C@H]5O)[C@@H](O)[C@H](O)[C@H]4O)cc3o2)cc1O	–	inactive: -3.8%
COc1ccc2c(c1)-c1c(ssc1=S)C(C)(C)N2	active: 12.6 µM	–
COc1ccc(Cc2nnc(SCc3ccc([N+](=O)[O-])cc3)o2)cc1	inconclusive: 79.4 µM [inhibitor, partial curve]	–
CCCCN(C(=O)c1cccc(C)c1)c1c(N)n(CCC)c(=O)[nH]c1=O	–	inactive: 7.04%
COc1ccc(Cl)cc1NC(=O)COC(=O)c1cc(NS(=O)(=O)c2cccs2)ccc1O	–	inactive: 2.66%
COC(=O)CSc1ncnc2c1sc1nc3c(cc12)COC(C)(C)C3	inconclusive: 89.1 µM [inhibitor, single point]	–
O=C(O)CCN1C(=O)NC2(CCCC2)C1=O	–	inactive: 6.26%
CCOC(=O)c1ccc2ncc(C(=O)OCC)c(Nc3ccc(N4CCOCC4)cc3)c2c1	active: 14.1 µM	–
CC1CCN(CCCn2c(=S)[nH]c3ccccc3c2=O)CC1	inconclusive: 100 µM [inhibitor, single point]	–
CC(=O)N(C(C)=O)N1C(=O)C2C3c4ccccc4C(c4ccccc43)C2C1=O (configuration not stated)	–	inactive: -11.7%
CCOC(=O)C1(C)/C(=N/Nc2ccc(Cl)cc2)C(=O)C(=O)N1c1ccccc1 (configuration not stated)	active: 56.2 µM	–
COC1=C(Nc2ccccc2)C(=O)c2ccccc2C1=O	active: 14.1 µM	–
O=C(NCc1ccco1)c1csc2c1CCCC2	inconclusive: 79.4 µM [inhibitor, single point]	–
CN(CC(=O)Nc1ccccc1Cl)C(=O)c1ccc(N2CCCCCC2)c([N+](=O)[O-])c1	inconclusive: 70.8 µM [inhibitor, partial curve]	–
O=C(c1ccco1)N1CCn2cccc2C1c1ccccc1 (configuration not stated)	active: 35.5 µM	–
O=C(Cc1ccc(F)cc1)NCCc1csc2nc(-c3ccccc3F)nn12	–	inactive: 5.05%
O=C1C=C(c2ccc(OC(F)(F)F)cc2)C[C@@H](c2ccc(Cl)cc2)C1	–	inactive: 0.831%
Cc1ccc2sc(N(CCCN(C)C)C(=O)c3ccc(Br)s3)nc2c1C	inconclusive: 56.2 µM [inhibitor, partial curve]	–
Cc1ccc(-c2c[n+](CC(=O)c3ccc(Br)cc3)c3n2CCCCC3)cc1	inconclusive: 79.4 µM [inhibitor, single point]	–
Cc1ccc(Nc2nc(N)nc(CSc3nc4ccccc4s3)n2)cc1	inconclusive: 79.4 µM [inhibitor, single point]	–
